Results on six molecules are retold here after publication PMC12136788.

T1: UNK ZnF1-3 (human, UniProt Q9C0B0 31-174)
T1 sequence: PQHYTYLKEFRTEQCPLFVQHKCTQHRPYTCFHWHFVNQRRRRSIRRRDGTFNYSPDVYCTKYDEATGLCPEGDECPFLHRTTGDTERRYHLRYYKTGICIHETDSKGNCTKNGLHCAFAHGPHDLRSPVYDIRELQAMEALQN

B1: chr4:148551591:148551592:-_ENSMUSG00000063077_ENSMUST00000060537|mus_hu|mus_mus_mus_hu_False|18_18 (ssRNA)
RNA: GGGAGUUCUACAGUCCGACGAUCACCUGACAAAAUUAAAUAUCCCUGUAAAUUAGACAAUAAGCAGCAGGCAACAAAGUCUUUGCUUUGGAAUAUGUGCCAGGAAAAGUCAUCUUGUAGACCCCAAUCAAGAGACAGUUCACACAACAGAGGAUUGAGCAUCA
B2: chr3:32582686:32582687:-_ENSG00000144635_ENST00000273130|hu_mus|motif|central (ssRNA)
RNA: GGGAGUUCUACAGUCCGACGAUCUCGCUGAGGGGAGGCUGGGAAGUCUUCUCCUGGCUCCACGUACUCUUGGAAGUCUCGGAUCAACUUCUGCUCCAUUUCCUUCAUCUCUUCAGGGGGGAUUUUCAGCUUGUCGACAUGUUCCAACAGAGGAUUGAGCAUCA
B3: 204320180_204320300_1521_CDS_ENSG00000173166_ENST00000319170|human|control|control (ssRNA)
RNA: GGGAGUUCUACAGUCCGACGAUCAUAGUAGAUACCAGAUGCUCGCAAGAGAAAAUAACGCUUUUUCCAGGACUUCUUGCCAUCAUCCUUCAACCAAAGGACUCCUUCAAUUUCUGGUACAGUUACAGAACUUCCACAAAAACACAACAGAGGAUUGAGCAUCA
B4: chr17:3197573:3197574:+_ENSMUSG00000046201_ENSMUST00000076734|mus_mus|motif|central (ssRNA)
RNA: GGGAGUUCUACAGUCCGACGAUCCCUCACAAGAUUCUCCCUCAUGUCCACAGGAGGUCUUCCAAAAUGAUCCCUAGCAUCGGAUGGAGGCCUUCCAGGGCCUUCUCUGGGAUCUAGACGUCGCCCAACCACAUCCCUAACAUCCAACAGAGGAUUGAGCAUCA
B5: chr11:77340908:77340909:-_ENSG00000074201_ENST00000525064|hu_mus|motif|central (ssRNA)
RNA: GGGAGUUCUACAGUCCGACGAUCGUUUGGAUCCCUGGACACCGCAUGUAAACUAAUGGUGGGGUAUUCCAGUGAGAAUCCGGAUCCCGAACCAUCUAACCAGGACAGGCGGCUCUCCGCGAUGUAAAGCGUGCCGGUGCCGAGCAACAGAGGAUUGAGCAUCA
B6: chr11:77843920:77843921:+_ENSMUSG00000037791_ENSMUST00000049167|mus_hu|motif|central (ssRNA)
RNA: GGGAGUUCUACAGUCCGACGAUCUUUUUUAUAUACAGAAUACAGGAAAGUUUCUGUAAAGUCUAAAACAUUACAAUUACGGUGUACAUUGGUACUGGUUGUGGGGGUGGGAGGAGAGGAGGGAACCAGGGGCAGGAGGAAGAGCAACAGAGGAUUGAGCAUCA

The list shows a part of the results.

The target in the test is T1, UNK ZnF1-3. In words: nsRBNS (natural sequence RNA bind-n-seq); RBNS binding buffer (assumed for nsRBNS): 25 mM Tris pH 7.5, 150 mM KCl, 3 mM MgCl2, 0.01% Triton X-100, 500 ug/ml BSA, 20 U/ml SUPERase-In, 4 C; UNK is unkempt and MSI1 is Musashi-1; names of the RNAs are library labels; protein concentration not given here; high values mean tight binding.
B1 registered a binding signal of 1.71 enrichment R. Then B2, with 0.426 enrichment R; and B3, with 1.26 enrichment R. Then B4, with 0.898 enrichment R. For B5 the value was 0.596 enrichment R; for B6, 1.66 enrichment R.
